Data as given in the RNAGym collection of RNA variant scans (doi:10.1073/pnas.2313332121).
This sample is rich in variants without activity.

B1: TPR 5TU (parent)
chain: GGAUCUUCUCGAUCUAACAAAAAAGACAAAUCUGCCACAAAGCUUGAGAGCAUCUUCGGAUGCAGAGGCGGCAGCCUUCGGUGGCGCGAUAGCGCCAACGUUCUCAACUAUGACACGCAAAACGCGUGCUCCGUUGAAUGGAGUUUAUCAUG

Variants of: B1
Test: polymerase ribozyme fitness, log enrichment relative to wild type (log ratio); higher = more active; in vitro selection for triplet polymerase activity
Outline: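 Genotype fitness is the logarithm of its enrichment divided by wild-type enrichment, using inverse-variance-weighted averages of replicates. That logarithm is base 2. Enrichment was measured by Illumina sequencing of input and output libraries from one triplicate in vitro selection round, with frozen incubation at −7 °C, on PCR-built, transcribed mutant libraries of each subunit of a heterodimeric triplet polymerase ribozyme, retaining genotypes with ≥10 input reads and ≥1 read per output.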

| Variant | polymerase ribozyme fitness (log ratio) |
| --- | --- |
| A20U C36A A41G U56A G65U A119G U127C | ≤ -4.2 |
| A20U A22C C85G G86A A97G G100A G124C | ≤ -4.2 |
| A21U G34C C99A C116A | ≤ -4.2 |
| A21C C27G U44A A66C G70C C87G | ≤ -4.2 |
| A20G G46A G83U G92C A106U | ≤ -4.2 |
| A21G C69A G94A A107G C114U G136A A147C | ≤ -4.2 |
| A20U U55A C87G G88A C103A A107G | ≤ -4.2 |
| A20U A47C C57U U77G C96G U130G | ≤ -4.2 |
| A21C G50A C96U C125G | -1.98 |
| A20U C57A | -1.36 |
| A21U A29U G42A C96U A120G G136C | ≤ -4.2 |
| A20U G83A G84C U111G U134C U145A A147G U151G | ≤ -4.2 |
| A21G A24G C51U U104G A113U | ≤ -4.2 |
| A21G A49U G50A | -0.423 |
| A20U G46A C76A C87G G94C C105G U144A | ≤ -4.2 |
| A20C G50U G81C C103U A120U | -2 |
| A20C A47C G50C G84A C93A U111G | ≤ -4.2 |
| A20G A30C U77C C85U A120G A150U | ≤ -4.2 |
| A21U A52C C85U C99G G128A A142C | ≤ -4.2 |
| A21G U55A A73U C75A G94C C118G | ≤ -4.2 |
| A20C A52U U90G | ≤ -4.2 |

| Variant | polymerase ribozyme fitness (log ratio) |
| --- | --- |
| A21C A26U A60C G70C G81A G84U G92A A115U | ≤ -4.2 |
| A20G A28G U90A C93A C95G A106U C123U | ≤ -4.2 |
| A20C G42C G58U C87G C103U A138C | ≤ -4.2 |
| A20C A47U C51U C105U U144A | -2.59 |
| A20G A26U A39C G86C A150C | ≤ -4.2 |
| A21C A52C C57U G68A C76G C93U C95U C105U | ≤ -4.2 |
| A21U C54A C96U | -2.01 |
| A20G A22C G50U C99U A137C | ≤ -4.2 |
| A21U G50A C54G G70C U77G G92A U134C U144G | ≤ -4.2 |
| A20G A24G C93U A115U G124U | ≤ -4.2 |
| A21U A30G U31A C51U C95A C103G A110C G136U | ≤ -4.2 |
| A21U C27U C35A C57A G59C G74C G86U A89G U101G | ≤ -4.2 |
| A20U G42A U61A C85U | ≤ -4.2 |
| A21U A23U U33G A89C A98U C103U | ≤ -4.2 |
| A20G G88A C103G C118A G141C A147C | ≤ -4.2 |
| A21G A24C U53A G68C C125G | ≤ -4.2 |
| A21G A49C G81A G141A | ≤ -4.2 |
| A20U A22C C36A U45A C75A C93G U148A | ≤ -4.2 |
| A20C A49C A52C C57U C76A G88A A106G G126C U145G | ≤ -4.2 |
| A20U U56A G80U C93A G100U G124C G136C | ≤ -4.2 |
| A21U A39G G62U G67U C93U G133C | ≤ -4.2 |

| Variant | polymerase ribozyme fitness (log ratio) |
| --- | --- |
| A20C G81C C87U | -1.28 |
| A20U G58C G59C C72U C93U | ≤ -4.2 |
| A20U G25C G124C | ≤ -4.2 |
| A21G U61G U90A A91U A115G | ≤ -4.2 |
| A20U A40U A49C G94A C99A G143A | ≤ -4.2 |
| A21G A91U C96U G100U | ≤ -4.2 |
| A20U C27U A41U G42U U44A C87G | ≤ -4.2 |
| A21G C54A G74C G83A C85A G100A G117A U148A | ≤ -4.2 |
| A21C A28G A29G A30U U55A C63U C76A | ≤ -4.2 |
| A21G C27U A52C C93G A110U G152U | ≤ -4.2 |
| A21C A49G G84U G100C U101G G136A A142U | ≤ -4.2 |
| A21U A47C G48C G84U G141C U146C | ≤ -4.2 |
| A21U C36A C75G C85A A89G A115U | ≤ -4.2 |
| A20G C36U C38A G58U C95U A110G A150C | ≤ -4.2 |
| A21C G25U G88A C96U | ≤ -4.2 |
| A21G A60G G68U C93G C95G U139C | ≤ -4.2 |
| A20G U45A C57A U78A G80C C85G A115G | ≤ -4.2 |
| A21U C76G C114U | ≤ -4.2 |
| A21C A28G A73G C85A | ≤ -4.2 |
| A20U A97U | -2.04 |
| A20U C36A C57G G68U C87A G126A G141C A142G | ≤ -4.2 |

| Variant | polymerase ribozyme fitness (log ratio) |
| --- | --- |
| A20U U55A G68U C85G C105U G124A G140C | ≤ -4.2 |
| A21U C69U C87U C96A | -1.14 |
| A21C C96A G143A U146G | -3.61 |
| A21U C93G | -2.5 |
| A20U A21U | -0.727 |
| A20C C93G | -3.89 |
| A20C C93U | -1.41 |
| A20C C43U G46U C69U C85U G86U A89G | ≤ -4.2 |
| A21C C87G | -3.89 |
| A21C G88U U135A | ≤ -4.2 |
| A21G A39U G83A U90G G92C C108G | ≤ -4.2 |
| A21G G80A C99G A119U | -0.387 |
| A20U G58A C96U U111G G124A U148A | ≤ -4.2 |
| A20U U55A G80C G86C A115U | ≤ -4.2 |
| A21U C43A G81U G86A C96G | ≤ -4.2 |
| A20G A40C A41G A49C C76G G88A C96U | ≤ -4.2 |
| A20G G83A G88C C93G G100A C149U | ≤ -4.2 |
| A21C A49U U111C U151C | ≤ -4.2 |
| A20U C57G C93U C123U | -2.57 |
| A21C G67C C95A A98U A115U C125U U151C | ≤ -4.2 |
